In US11000038B2, “Pyridone compounds and agricultural and horticultural fungicides containing the same as active ingredients” (priority 2017, dated 2021):

Assays:
[1] = test system: cucumber anthracnose fungi (Colletotrichum orbiculare); test: Test Example H: cucumber anthracnose, spray treatment of cucumber plants; conditions: for Test H control value: cucumber anthracnose, 6 to 10 days after inoculation; for Test H control value class (cucumber anthracnose): 2.5 ml/pot, cucumber Sagami Hanjiro, 6 to 10 days from inoculation
[2] = test system: rice blast fungi (Magnaporthe grisea); assay type: in vivo; conditions: for Test A control value: rice blast; for Test A control value class (rice blast): control value=100{1-(n/3)}
[3] = test system: tomato late blight fungi (Phytophthora infestans); assay type: in vivo; conditions: for Test F control value: tomato late blight; for Test F control value class (tomato late blight): control value=100{1-(n/3)}
[4] = spray treatment of tomato plants

Compound: Cc1ccccc1-n1cc(C)c(=O)c(CC(F)(F)F)c1-c1c(F)cc(F)cc1F [Compound 355]
- Test H control value ([1]; 250 ppm spray (2.5 ml/pot)): L (L shows the control value of 50% or less)
- Test A control value ([2]; spray treatment of rice plants): H (H shows the control value of more than 50%)
- Test F control value [3, 4]: L (L shows the control value of 50% or less)

Compound: O=c1c(Br)cn(-c2cc(F)ccc2Cl)c(-c2ccccc2)c1Cl [Compound 417]
- Test H control value ([1]; 250 ppm spray): H (H shows the control value of more than 50%)
- Test A control value ([2]; spray treatment): L (L shows the control value of 50% or less)
- Test F control value ([3]; spray treatment): L (L shows the control value of 50% or less)

Compound: Cc1ccccc1-n1cc(Br)c(=O)c(Br)c1-c1ccc(C#N)cc1 [Compound 238]
- Test H control value ([1]; 250 ppm spray (2.5 ml/pot)): L (L shows the control value of 50% or less)
- Test A control value ([2]; spray treatment of rice plants): H (H shows the control value of more than 50%)
- Test F control value [3, 4]: L (L shows the control value of 50% or less)

Compound: CCc1ccccc1-n1cc(Br)c(=O)c(CC)c1-c1c(F)cc(F)cc1F [Compound 488]
- Test H control value ([1]; 250 ppm spray): H (H shows the control value of more than 50%)
- Test A control value ([2]; spray treatment): H (H shows the control value of more than 50%)
- Test F control value ([3]; spray treatment): L (L shows the control value of 50% or less)

Compound: Cc1cccc(C)c1-n1cc(Br)c(=O)c(Br)c1-c1ccccc1 [Compound 451]
- Test H control value ([1]; 250 ppm spray): H (H shows the control value of more than 50%)
- Test A control value ([2]; spray treatment): L (L shows the control value of 50% or less)
- Test F control value ([3]; spray treatment): L (L shows the control value of 50% or less)

Compound: Cc1cn(-c2ccccc2)c(-c2cc(Cl)cc(Cl)c2)c(C)c1=O [Compound 624]
- Test H control value ([1]; 250 ppm spray): L (L shows the control value of 50% or less)
- Test A control value ([2]; spray treatment): L (L shows the control value of 50% or less)
- Test F control value ([3]; spray treatment): L (L shows the control value of 50% or less)

Compound: Cc1cn(-c2ccccc2Cl)c(-c2c(F)cccc2F)c(C)c1=O [Compound 473]
- Test H control value ([1]; 250 ppm spray): H (H shows the control value of more than 50%)
- Test A control value ([2]; spray treatment): H (H shows the control value of more than 50%)
- Test F control value ([3]; spray treatment): L (L shows the control value of 50% or less)

Compound: CCc1ccc(OC)cc1-n1cc(Br)c(=O)c(CC)c1-c1c(F)cccc1F [Compound 627]
- Test H control value ([1]; 250 ppm spray): H (H shows the control value of more than 50%)
- Test A control value ([2]; spray treatment): L (L shows the control value of 50% or less)
- Test F control value ([3]; spray treatment): L (L shows the control value of 50% or less)

Compound: Cc1ccc(C)c(-n2cc(C)c(=O)c(C)c2-c2c(F)cccc2F)c1 [Compound 402]
- Test H control value ([1]; 250 ppm spray): L (L shows the control value of 50% or less)
- Test A control value ([2]; spray treatment): L (L shows the control value of 50% or less)
- Test F control value ([3]; spray treatment): L (L shows the control value of 50% or less)

Compound: COc1ccc(C)c(-n2cc(Br)c(=O)c(C)c2-c2ccccc2)c1 [Compound 400]
- Test H control value ([1]; 250 ppm spray): H (H shows the control value of more than 50%)
- Test A control value ([2]; spray treatment): H (H shows the control value of more than 50%)
- Test F control value ([3]; spray treatment): L (L shows the control value of 50% or less)

Compound: O=c1c(Br)cn(-c2ccon2)c(-c2c(F)cc(F)cc2F)c1Br [Compound 127]
- Test H control value class (cucumber anthracnose) ([1]; 250 ppm spray): H (H shows the control value of more than 50%)
- Test A control value class (rice blast) ([2]; spray treatment of rice plants): H (H shows the control value of more than 50%)
- Test F control value class (tomato late blight) [3, 4]: L (L shows the control value of 50% or less)

Compound: Cc1cc(Cl)ccc1-n1cc(Br)c(=O)c(Br)c1-c1c(F)cc(F)cc1F [Compound 330]
- Test H control value ([1]; 250 ppm spray (2.5 ml/pot)): L (L shows the control value of 50% or less)
- Test A control value ([2]; spray treatment of rice plants): H (H shows the control value of more than 50%)
- Test F control value [3, 4]: L (L shows the control value of 50% or less)

Compound: CCc1c(-c2ccccc2)n(-c2ccccc2)cc(C)c1=O [Compound 559]
- Test H control value ([1]; 250 ppm spray): H (H shows the control value of more than 50%)
- Test A control value ([2]; spray treatment): L (L shows the control value of 50% or less)
- Test F control value ([3]; spray treatment): L (L shows the control value of 50% or less)

Compound: Cc1ccccc1-n1cc(C)c(=O)c(C)c1-c1ccncc1 [Compound 271]
- Test H control value ([1]; 250 ppm spray (2.5 ml/pot)): L (L shows the control value of 50% or less)
- Test A control value ([2]; spray treatment of rice plants): H (H shows the control value of more than 50%)
- Test F control value [3, 4]: L (L shows the control value of 50% or less)

Compound: Cc1c(F)cccc1-n1cc(C)c(=O)c(C)c1-c1c(F)cccc1F [Compound 479]
- Test H control value ([1]; 250 ppm spray): H (H shows the control value of more than 50%)
- Test A control value ([2]; spray treatment): H (H shows the control value of more than 50%)
- Test F control value ([3]; spray treatment): L (L shows the control value of 50% or less)

Compound: COc1cccc(-n2cc(C)c(=O)c(C)c2-c2ccccc2)c1C [Compound 546]
- Test H control value ([1]; 250 ppm spray): H (H shows the control value of more than 50%)
- Test A control value ([2]; spray treatment): H (H shows the control value of more than 50%)
- Test F control value ([3]; spray treatment): L (L shows the control value of 50% or less)

Compound: Cc1c(O)cccc1-n1cc(Br)c(=O)c(Br)c1-c1c(F)cc(F)cc1F [Compound 419]
- Test H control value ([1]; 250 ppm spray): H (H shows the control value of more than 50%)
- Test A control value ([2]; spray treatment): L (L shows the control value of 50% or less)
- Test F control value ([3]; spray treatment): L (L shows the control value of 50% or less)

Compound: Cc1cccc(Cl)c1-n1cc(Br)c(=O)c(Cl)c1-c1ccc(F)cc1 [Compound 379]
- Test H control value ([1]; 250 ppm spray): L (L shows the control value of 50% or less)
- Test A control value ([2]; spray treatment): H (H shows the control value of more than 50%)
- Test F control value ([3]; spray treatment): L (L shows the control value of 50% or less)

Compound: COc1cccc(-n2cc(C)c(=O)c(C)c2-c2c(F)cccc2F)c1C [Compound 523]
- Test H control value ([1]; 250 ppm spray): H (H shows the control value of more than 50%)
- Test A control value ([2]; spray treatment): H (H shows the control value of more than 50%)
- Test F control value ([3]; spray treatment): L (L shows the control value of 50% or less)

Compound: Cc1ccc(N(C)C)cc1-n1cc(Br)c(=O)c(Cl)c1-c1c(F)cc(F)cc1F [Compound 373]
- Test H control value ([1]; 250 ppm spray): H (H shows the control value of more than 50%)
- Test A control value ([2]; spray treatment): H (H shows the control value of more than 50%)
- Test F control value ([3]; spray treatment): L (L shows the control value of 50% or less)

Compound: CCc1c(-c2ccccc2)n(-c2cc(F)ccc2C)cc(C)c1=O [Compound 573]
- Test H control value ([1]; 250 ppm spray): L (L shows the control value of 50% or less)
- Test A control value ([2]; spray treatment): H (H shows the control value of more than 50%)
- Test F control value ([3]; spray treatment): L (L shows the control value of 50% or less)

Compound: COc1ccc(C)c(-n2cc(Cl)c(=O)c(Cl)c2-c2c(F)cc(F)cc2F)c1 [Compound 229]
- Test H control value ([1]; 250 ppm spray (2.5 ml/pot)): H (H shows the control value of more than 50%)
- Test A control value ([2]; spray treatment of rice plants): H (H shows the control value of more than 50%)
- Test F control value [3, 4]: L (L shows the control value of 50% or less)

Compound: COc1ccc(-n2cc(Br)c(=O)c(Cl)c2-c2c(F)cc(F)cc2F)c(C)c1 [Compound 264]
- Test H control value ([1]; 250 ppm spray (2.5 ml/pot)): H (H shows the control value of more than 50%)
- Test A control value ([2]; spray treatment of rice plants): H (H shows the control value of more than 50%)
- Test F control value [3, 4]: H (H shows the control value of more than 50%)

Compound: CCc1ccc(OC)cc1-n1cc(C)c(=O)c(C)c1-c1c(F)cccc1F [Compound 617]
- Test H control value ([1]; 250 ppm spray): H (H shows the control value of more than 50%)
- Test A control value ([2]; spray treatment): H (H shows the control value of more than 50%)
- Test F control value ([3]; spray treatment): L (L shows the control value of 50% or less)

Compound: Cc1ccc(-c2c(Br)c(=O)c(Br)cn2-c2ccccc2C)cc1 [Compound 408]
- Test H control value ([1]; 250 ppm spray): L (L shows the control value of 50% or less)
- Test A control value ([2]; spray treatment): L (L shows the control value of 50% or less)
- Test F control value ([3]; spray treatment): L (L shows the control value of 50% or less)

Compound: COc1cc(F)c(-c2c(Br)c(=O)c(Br)cn2CC(C)C)c(F)c1 [Compound 133]
- Test H control value class (cucumber anthracnose) ([1]; 250 ppm spray): H (H shows the control value of more than 50%)
- Test A control value class (rice blast) ([2]; spray treatment of rice plants): H (H shows the control value of more than 50%)
- Test F control value class (tomato late blight) [3, 4]: L (L shows the control value of 50% or less)

Compound: CCc1c(-c2c(F)cc(F)cc2F)n(-c2cccc(C)c2C)cc(C)c1=O [Compound 533, 1-(2,3-dimethylphenyl)-3-ethyl-5-methyl-2-(2,4,6-trifluorophenyl)pyridin-4(1H)-one]
- Test H control value ([1]; 250 ppm spray): H (H shows the control value of more than 50%)
- Test A control value ([2]; spray treatment): H (H shows the control value of more than 50%)
- Test F control value ([3]; spray treatment): L (L shows the control value of 50% or less)

Compound: Cc1cc(F)ccc1-n1cc(Cl)c(=O)c(Cl)c1-c1c(F)cc(F)cc1F [Compound 276]
- Test H control value ([1]; 250 ppm spray (2.5 ml/pot)): H (H shows the control value of more than 50%)
- Test A control value ([2]; spray treatment of rice plants): H (H shows the control value of more than 50%)
- Test F control value [3, 4]: L (L shows the control value of 50% or less)

Compound: CCc1c(-c2ccc(F)cc2C)n(-c2ccccc2)cc(Br)c1=O [Compound 622]
- Test H control value ([1]; 250 ppm spray): L (L shows the control value of 50% or less)
- Test A control value ([2]; spray treatment): L (L shows the control value of 50% or less)
- Test F control value ([3]; spray treatment): L (L shows the control value of 50% or less)

Compound: COc1cc(F)c(-c2c(C)c(=O)c(C)cn2-c2cc(F)ccc2C)c(F)c1 [Compound 462]
- Test H control value ([1]; 250 ppm spray): H (H shows the control value of more than 50%)
- Test A control value ([2]; spray treatment): H (H shows the control value of more than 50%)
- Test F control value ([3]; spray treatment): L (L shows the control value of 50% or less)

Compound: CCc1ccccc1-n1cc(Br)c(=O)c(CC)c1-c1c(F)cccc1F [Compound 509]
- Test H control value ([1]; 250 ppm spray): H (H shows the control value of more than 50%)
- Test A control value ([2]; spray treatment): H (H shows the control value of more than 50%)
- Test F control value ([3]; spray treatment): L (L shows the control value of 50% or less)

Compound: O=c1c(Br)cn(Cc2ccccc2)c(-c2c(F)cc(F)cc2F)c1Br [Compound 57]
- Test H control value class (cucumber anthracnose) ([1]; 250 ppm spray): H (H shows the control value of more than 50%)
- Test A control value class (rice blast) ([2]; spray treatment of rice plants): H (H shows the control value of more than 50%)
- Test F control value class (tomato late blight) [3, 4]: L (L shows the control value of 50% or less)

Read-outs that look alike come from different tables or passages of the source.
